# Source: publication PMC10400574
# Sequences of proteins named here, by UniProt entry; tags and fusion partners are left off.
# UniProt Q9HAU4: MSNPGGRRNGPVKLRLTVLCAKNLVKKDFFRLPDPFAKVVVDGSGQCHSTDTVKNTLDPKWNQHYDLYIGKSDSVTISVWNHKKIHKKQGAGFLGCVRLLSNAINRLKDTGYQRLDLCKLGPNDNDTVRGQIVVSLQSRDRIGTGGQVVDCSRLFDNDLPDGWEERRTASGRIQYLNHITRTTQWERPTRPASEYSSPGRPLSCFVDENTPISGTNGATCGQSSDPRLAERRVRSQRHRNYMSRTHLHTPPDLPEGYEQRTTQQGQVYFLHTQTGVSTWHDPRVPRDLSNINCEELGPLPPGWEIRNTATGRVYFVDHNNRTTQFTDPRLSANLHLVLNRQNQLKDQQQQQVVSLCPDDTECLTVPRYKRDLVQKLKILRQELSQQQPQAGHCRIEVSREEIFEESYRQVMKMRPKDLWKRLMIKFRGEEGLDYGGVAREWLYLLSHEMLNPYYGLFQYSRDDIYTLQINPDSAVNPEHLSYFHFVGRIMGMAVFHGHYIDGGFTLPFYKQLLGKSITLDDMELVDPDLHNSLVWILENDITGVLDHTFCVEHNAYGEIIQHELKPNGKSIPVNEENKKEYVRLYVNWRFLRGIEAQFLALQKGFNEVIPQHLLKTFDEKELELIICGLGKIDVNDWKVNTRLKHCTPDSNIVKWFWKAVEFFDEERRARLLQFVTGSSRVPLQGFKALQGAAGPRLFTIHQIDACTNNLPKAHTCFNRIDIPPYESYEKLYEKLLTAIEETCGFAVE
# UniProt Q9HCE7: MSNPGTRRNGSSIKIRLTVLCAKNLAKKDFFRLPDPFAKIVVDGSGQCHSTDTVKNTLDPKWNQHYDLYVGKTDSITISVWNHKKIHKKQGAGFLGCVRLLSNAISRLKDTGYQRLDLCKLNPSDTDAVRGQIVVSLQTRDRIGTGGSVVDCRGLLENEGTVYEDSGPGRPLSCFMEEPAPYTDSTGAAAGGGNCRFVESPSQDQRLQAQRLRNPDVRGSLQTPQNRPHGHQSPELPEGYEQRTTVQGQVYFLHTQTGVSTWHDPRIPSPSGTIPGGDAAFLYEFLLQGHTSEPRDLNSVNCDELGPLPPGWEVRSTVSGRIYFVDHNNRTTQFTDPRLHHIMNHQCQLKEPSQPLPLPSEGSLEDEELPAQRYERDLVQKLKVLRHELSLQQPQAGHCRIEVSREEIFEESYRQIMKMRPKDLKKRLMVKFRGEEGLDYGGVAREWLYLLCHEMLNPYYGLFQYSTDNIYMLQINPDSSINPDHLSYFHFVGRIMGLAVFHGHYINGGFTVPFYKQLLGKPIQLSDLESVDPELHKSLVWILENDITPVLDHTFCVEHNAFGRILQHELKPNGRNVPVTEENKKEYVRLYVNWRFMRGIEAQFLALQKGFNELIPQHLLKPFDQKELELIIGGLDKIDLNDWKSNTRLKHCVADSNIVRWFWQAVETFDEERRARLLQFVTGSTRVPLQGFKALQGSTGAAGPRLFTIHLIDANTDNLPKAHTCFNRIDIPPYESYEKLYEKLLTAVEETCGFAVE
# Results are given in words; binding and its absence hold for the method and conditions named. Binding seen in cells or lysates may run through a third protein. Some binding calls cover weakened binding; strength is not graded here. For part of these data: Where a sequence is shown, tags or fusion partners need not be part of it.
# B1: RNF220, wild-type, transfected (prey of Flag-tagged Smurf1 or Smurf2) (protein, UniProt Q6PDX6 1-566)
# chain: MDLHRAAFKMENSSYLPNPLASPALMVLASTAEASRDASIPCQQPRPFGVPVSVDKDVHIPFTNGSYTFASMYHRQGGVPGTFANRDFPPSLLHLHPQFAPPNLDCTPISMLNHSGVGAFRPFASTEDRESYQSAFTPAKRLKNCHDTESPHLRFSDADGKEYDFGTQLPSSSPGSLKVDDTGKKIFAVSGLISDRETSSSPEDRNDRCKKKAVALFDSQAPLCPICQVLLRPSELQEHMEQELEQLAQLPASKNSLLKDAMAPGTPKSLLLSASIKREGDSPTASPHSSATEDLHHSDRYQTFLRVRANRQTRLNARIGKMKRRKQDEGQREGSCMAEDDAVDIEHADSNRFEEYEWCGQKRIRATTLLEGGFRGSGFVMCSGKENPDSDADLDVDGDDTLEYGKPQYTEADVIPCTGEEPGEAKEREALRGAVLNGGPPSTRITPEFSKWASDEMPSTSNGEGSKQEAMQKTCKNSDIEKITEESAVTTFEALKARVRELERQLSRGDRYKCLICMDSYSMPLTSIQCWHVHCEECWLRTLGAKKLCPQCNTITAPGDLRRIYL
# B2: Endogenous RNF220 (HEK293) (protein, UniProt Q5VTB9 1-566)
# chain: MDLHRAAFKMENSSYLPNPLASPALMVLASTAEASRDASIPCQQPRPFGVPVSVDKDVHIPFTNGSYTFASMYHRQGGVPGTFANRDFPPSLLHLHPQFAPPNLDCTPISMLNHSGVGAFRPFASTEDRESYQSAFTPAKRLKNCHDTESPHLRFSDADGKEYDFGTQLPSSSPGSLKVDDTGKKIFAVSGLISDREASSSPEDRNDRCKKKAAALFDSQAPICPICQVLLRPSELQEHMEQELEQLAQLPSSKNSLLKDAMAPGTPKSLLLSASIKREGESPTASPHSSATDDLHHSDRYQTFLRVRANRQTRLNARIGKMKRRKQDEGQREGSCMAEDDAVDIEHENNNRFEEYEWCGQKRIRATTLLEGGFRGSGFIMCSGKENPDSDADLDVDGDDTLEYGKPQYTEADVIPCTGEEPGEAKEREALRGAVLNGGPPSTRITPEFSKWASDEMPSTSNGESSKQEAMQKTCKNSDIEKITEDSAVTTFEALKARVRELERQLSRGDRYKCLICMDSYSMPLTSIQCWHVHCEECWLRTLGAKKLCPQCNTITAPGDLRRIYL
# Legend:
# [1] = target: T1, RNF220, wild-type, full-length, Flag-tagged (mouse) (UniProt Q6PDX6); assay: co-IP; extracts of HEK293 cells stably transfected with RNF220-Flag; anti-Flag beads; endogenous Smurf1 or Smurf2 detected with anti-Smurf1 or anti-Smurf2; IgG as negative control
# T1 sequence: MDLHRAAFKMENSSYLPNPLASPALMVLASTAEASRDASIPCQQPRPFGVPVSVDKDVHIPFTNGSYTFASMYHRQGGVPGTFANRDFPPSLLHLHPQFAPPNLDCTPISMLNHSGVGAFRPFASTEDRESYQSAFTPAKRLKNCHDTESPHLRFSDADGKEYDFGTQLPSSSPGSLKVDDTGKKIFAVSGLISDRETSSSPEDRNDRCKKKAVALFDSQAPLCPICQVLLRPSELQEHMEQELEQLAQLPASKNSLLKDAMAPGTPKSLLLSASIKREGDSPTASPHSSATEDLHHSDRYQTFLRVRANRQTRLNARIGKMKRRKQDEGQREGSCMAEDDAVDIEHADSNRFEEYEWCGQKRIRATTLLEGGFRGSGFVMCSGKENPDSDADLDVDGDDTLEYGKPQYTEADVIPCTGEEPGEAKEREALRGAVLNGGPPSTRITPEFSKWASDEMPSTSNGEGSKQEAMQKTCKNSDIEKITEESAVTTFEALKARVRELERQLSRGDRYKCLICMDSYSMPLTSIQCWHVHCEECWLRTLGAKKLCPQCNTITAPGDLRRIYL
# [2] = target: T2, RNF220 in Daoy and UW228 cells (UniProt Q5VTB9); assay: co-IP; in vivo co-IP in Daoy and UW228 cells (Supplementary Fig. 2); bait not told
# T2 sequence: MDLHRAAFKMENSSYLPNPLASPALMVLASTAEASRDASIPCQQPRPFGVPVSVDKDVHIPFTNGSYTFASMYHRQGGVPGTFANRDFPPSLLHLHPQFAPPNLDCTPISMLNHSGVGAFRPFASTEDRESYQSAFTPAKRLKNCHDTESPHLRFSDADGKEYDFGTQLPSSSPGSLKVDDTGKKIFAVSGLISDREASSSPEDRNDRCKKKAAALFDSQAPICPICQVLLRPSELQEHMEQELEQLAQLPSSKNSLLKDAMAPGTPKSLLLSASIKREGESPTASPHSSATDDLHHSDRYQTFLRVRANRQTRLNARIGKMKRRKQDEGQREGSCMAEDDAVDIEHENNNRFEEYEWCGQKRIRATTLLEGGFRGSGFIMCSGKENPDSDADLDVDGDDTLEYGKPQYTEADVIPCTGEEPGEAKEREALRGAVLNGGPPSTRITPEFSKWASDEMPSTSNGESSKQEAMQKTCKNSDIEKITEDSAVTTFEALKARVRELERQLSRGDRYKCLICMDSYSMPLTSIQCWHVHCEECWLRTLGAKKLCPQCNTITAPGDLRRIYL
# [3] = target: T3, RNF220 S282/286A mutant, full-length (mouse) (UniProt Q6PDX6); assay: co-IP; HEK293 cells transiently cotransfected; lysis in 50 mM Tris-HCl pH 7.5, 150 mM NaCl, 1% Triton X-100; lysates incubated with anti-Flag beads, Western blot
# T3 sequence: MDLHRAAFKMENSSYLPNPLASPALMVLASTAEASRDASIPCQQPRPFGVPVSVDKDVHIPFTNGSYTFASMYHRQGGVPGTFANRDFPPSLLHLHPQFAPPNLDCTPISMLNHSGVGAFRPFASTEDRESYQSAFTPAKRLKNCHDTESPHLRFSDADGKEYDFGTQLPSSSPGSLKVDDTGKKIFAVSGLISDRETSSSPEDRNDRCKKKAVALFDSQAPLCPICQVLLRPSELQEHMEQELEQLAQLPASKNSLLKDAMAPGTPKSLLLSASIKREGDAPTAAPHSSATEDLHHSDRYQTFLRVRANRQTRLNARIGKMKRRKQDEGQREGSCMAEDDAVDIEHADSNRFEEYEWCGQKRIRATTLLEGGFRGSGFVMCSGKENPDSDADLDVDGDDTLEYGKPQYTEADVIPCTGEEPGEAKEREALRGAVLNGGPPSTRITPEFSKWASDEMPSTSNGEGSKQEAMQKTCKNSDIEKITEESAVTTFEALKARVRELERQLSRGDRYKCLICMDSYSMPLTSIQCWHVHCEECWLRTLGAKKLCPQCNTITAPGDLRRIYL
# [4] = target: T4, RNF220 fragment containing the N-terminal 330 amino acids (mouse) (UniProt Q6PDX6); assay: as above
# T4 sequence: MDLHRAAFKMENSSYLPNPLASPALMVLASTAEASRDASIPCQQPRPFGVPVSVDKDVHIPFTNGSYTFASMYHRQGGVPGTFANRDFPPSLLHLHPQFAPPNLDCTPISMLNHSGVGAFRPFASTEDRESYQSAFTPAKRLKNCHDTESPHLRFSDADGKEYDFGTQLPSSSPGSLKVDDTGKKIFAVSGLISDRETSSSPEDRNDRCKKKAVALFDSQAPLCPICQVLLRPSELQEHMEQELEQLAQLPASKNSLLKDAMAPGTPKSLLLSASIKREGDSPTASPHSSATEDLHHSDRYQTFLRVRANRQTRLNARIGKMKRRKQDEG
# [5] = target: T5, RNF220 fragment containing the N-terminal 240 amino acids (mouse) (UniProt Q6PDX6); assay: as above
# T5 sequence: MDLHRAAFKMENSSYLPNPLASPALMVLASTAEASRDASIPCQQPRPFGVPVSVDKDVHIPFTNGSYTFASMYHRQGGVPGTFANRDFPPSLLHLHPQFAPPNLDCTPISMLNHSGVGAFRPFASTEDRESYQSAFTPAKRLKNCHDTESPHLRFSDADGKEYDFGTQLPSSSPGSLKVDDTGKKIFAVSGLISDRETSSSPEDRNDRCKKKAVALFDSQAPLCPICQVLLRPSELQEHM
# [6] = target: T6, RNF220 with the N-terminal 240 amino acids deleted (mouse) (UniProt Q6PDX6); assay: as above
# T6 sequence: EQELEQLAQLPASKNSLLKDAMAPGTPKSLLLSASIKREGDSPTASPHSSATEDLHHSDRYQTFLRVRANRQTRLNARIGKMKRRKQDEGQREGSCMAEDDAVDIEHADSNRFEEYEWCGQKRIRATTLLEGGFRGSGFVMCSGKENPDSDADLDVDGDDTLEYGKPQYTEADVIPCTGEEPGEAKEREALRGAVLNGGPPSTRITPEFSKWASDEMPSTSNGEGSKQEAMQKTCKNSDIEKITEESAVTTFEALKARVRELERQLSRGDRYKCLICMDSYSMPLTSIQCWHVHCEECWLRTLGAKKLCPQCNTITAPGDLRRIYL
# [7] = target: T1, RNF220, wild-type, full-length, Flag-tagged (mouse); assay: as above
# [8] = target: Smurf2, wild-type, transfected, precipitated with anti-Flag beads (human) (UniProt Q9HAU4); assay: as above
# [9] = target: Smurf1, wild-type, transfected, precipitated with anti-Flag beads (human) (UniProt Q9HCE7); assay: as above
# [10] = target: Endogenous Smurf2 (HEK293) (human (endogenous in HEK293)) (UniProt Q9HAU4); assay: co-IP; endogenous proteins of HEK293 cell extracts; precipitated with antibody against Smurf1 or Smurf2, RNF220 detected with anti-RNF220; IgG as negative control
# [11] = target: Endogenous Smurf1 (HEK293) (human (endogenous in HEK293)) (UniProt Q9HCE7); assay: as above
molecule,measurement,setting,value
Endogenous Smurf1 (HEK293) (from UniProt Q9HCE7 1-757) (enzyme),binding,[1],binds
Endogenous Smurf2 (HEK293) (from UniProt Q9HAU4 1-748) (enzyme),binding,[1],binds
Smurf1 in Daoy and UW228 cells (from UniProt Q9HCE7 1-757) (enzyme),binding,[2],binds
"Smurf1, wild-type, transfected (prey of Flag-RNF220) (from UniProt Q9HCE7 1-757) (enzyme)",binding,[3],no binding
same,binding,[4],binds
same,binding,[5],no binding
same,binding,[6],binds
same,binding,[7],binds
Smurf2 in Daoy and UW228 cells (from UniProt Q9HAU4 1-748) (enzyme),binding,[2],binds
"Smurf2, wild-type, transfected (prey of Flag-RNF220) (from UniProt Q9HAU4 1-748) (enzyme)",binding,[3],no binding
same,binding,[4],binds
same,binding,[5],no binding
same,binding,[6],binds
same,binding,[7],binds
B1,binding,[8],binds
same,binding,[9],binds
B2,binding,[10],binds
same,binding,[11],binds
